Laboratory results taken from patent US20240123068A1 (KITE PHARMA, published 2024).

T1: Human CD19, wild-type full-length protein expressed on cells (human, UniProt P15391 20-556)
T1 construct: also called WT CD19; CD19 wild type protein
T1 sequence: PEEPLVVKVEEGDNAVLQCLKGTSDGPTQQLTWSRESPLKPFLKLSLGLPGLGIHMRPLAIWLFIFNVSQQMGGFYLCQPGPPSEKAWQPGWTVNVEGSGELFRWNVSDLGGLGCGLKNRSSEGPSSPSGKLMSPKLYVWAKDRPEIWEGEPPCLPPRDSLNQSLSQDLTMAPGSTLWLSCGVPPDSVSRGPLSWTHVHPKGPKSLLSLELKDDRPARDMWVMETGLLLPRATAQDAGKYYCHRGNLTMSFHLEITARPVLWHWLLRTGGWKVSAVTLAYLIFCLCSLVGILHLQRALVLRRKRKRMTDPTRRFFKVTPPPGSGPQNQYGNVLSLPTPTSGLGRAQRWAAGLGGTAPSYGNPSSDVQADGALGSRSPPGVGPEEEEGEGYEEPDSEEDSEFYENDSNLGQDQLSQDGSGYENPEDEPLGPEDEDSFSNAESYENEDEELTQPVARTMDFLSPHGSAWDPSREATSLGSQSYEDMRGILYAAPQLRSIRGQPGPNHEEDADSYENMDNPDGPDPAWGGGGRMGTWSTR


Target: T1, Human CD19, wild-type full-length …
Assay: scFv clone screen on NALM6 cells with and without CD19

Binder	binding result
CD19 A4 scFv (P2) (scFv, also called 43; clone 43) scFv: [about 100 residues left out here]SWTFGQGTKVEIKGGGGSGGGGSGGGGSQVQLVQSGAEVKKPGSSVKVSCKASGGTFSNYYISWVRQAPGQGLEWMGGIIPLFGTTNYAQKFQGRVTITADESTSTAYMELSSLRSEDTAVYYCARGTWYAGDIWGQGTLVTVSS	binds
CD19 E4 scFv (P3) (scFv, also called 44; clone 44) scFv: [about 100 residues left out here]VTFGQGTKVEIKGGGGSGGGGSGGGGSQVQLVQSGAEVKKPGSSVKVSCKASGGTFSNYAINWVRQAPGQGLEWMGRIVPLLGIANYAQKFQGRVTITADESTSTAYMELSSLRSEDTAVYYCAREHIAYRPTSAGYYYYMDIWGQGTLVTVSS	binds
